This is one part of the list. Single values are uncertain, as repeats are few or missing.
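Also: cells treated in 1,536-well plates, then fixed and DAPI-stained, with nuclei counted from automated high-throughput microscope images.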

One assay concerns IPC-298. Briefly: cell count relative to DMSO control; melanoma cells; higher = more viable cells. The settings on record: library dose: standard library concentration; 72 h.
Consider `Cc1cc(Nc2cc(N3CCN(C)CC3)nc(Sc3ccc(NC(=O)C4CC4)cc3)n2)n[nH]1` [Tozasertib] + C#Cc1cccc(Nc2ncnc3cc(OCCOC)c(OCCOC)cc23)c1 [erlotinib] (first compound 0.03 µM, partner dose 4 µM), for which the cell count was 51.4%.

The compound `Cc1cc(Nc2cc(N3CCN(C)CC3)nc(Sc3ccc(NC(=O)C4CC4)cc3)n2)n[nH]1` [Tozasertib] + COc1cc(N2CCC(N3CCN(C)CC3)CC2)ccc1Nc1ncc(Cl)c(Nc2ccccc2S(=O)(=O)C(C)C)n1 [NVP-TAE684] (first compound 0.03 µM, partner dose 0.4 µM) gave a cell count of 79%.

Take `CC[C@]1(O)C[C@H]2CN(CCc3c([nH]c4ccccc34)[C@@](C(=O)OC)(c3cc4c(cc3OC)N(C=O)[C@H]3[C@@](O)(C(=O)OC)[C@H](OC(C)=O)[C@]5(CC)C=CCN6CC[C@]43[C@@H]65)C2)C1` [vincristine] + CCc1ccc(CCOc2ccc(CC3SC(=O)NC3=O)cc2)nc1 [pioglitazone] (first compound 0.0005 µM, partner dose 10 µM): the cell count worked out at 50%.

Turning to `Cc1cc(Nc2cc(N3CCN(C)CC3)nc(Sc3ccc(NC(=O)C4CC4)cc3)n2)n[nH]1` [Tozasertib] + COc1cc(Nc2ncc(F)c(Nc3ccc4c(n3)NC(=O)C(C)(C)O4)n2)cc(OC)c1OC [Tamatinib] (first compound 0.03 µM, partner dose 2 µM), the cell count came to 85.1%.

`Cc1cc(Nc2cc(N3CCN(C)CC3)nc(Sc3ccc(NC(=O)C4CC4)cc3)n2)n[nH]1` [Tozasertib] + C[C@@H](Oc1cc(-c2cnn(C3CCNCC3)c2)cnc1N)c1c(Cl)ccc(F)c1Cl [Crizotinib] (first compound 0.03 µM, partner dose 1 µM) displayed a cell count of 76.4%.

Compound `CC[C@]1(O)C[C@H]2CN(CCc3c([nH]c4ccccc34)[C@@](C(=O)OC)(c3cc4c(cc3OC)N(C=O)[C@H]3[C@@](O)(C(=O)OC)[C@H](OC(C)=O)[C@]5(CC)C=CCN6CC[C@]43[C@@H]65)C2)C1` [vincristine] + CN(NC(=O)CC(=O)NN(C)C(=S)c1ccccc1)C(=S)c1ccccc1 [STA4783] (first compound 0.0005 µM, partner dose 0.03 µM) returned a cell count of 85.4%.

In turn, `CC[C@]1(O)C[C@H]2CN(CCc3c([nH]c4ccccc34)[C@@](C(=O)OC)(c3cc4c(cc3OC)N(C=O)[C@H]3[C@@](O)(C(=O)OC)[C@H](OC(C)=O)[C@]5(CC)C=CCN6CC[C@]43[C@@H]65)C2)C1` [vincristine] + NC1(c2ccc(-c3nc4ccn5c(=O)[nH]nc5c4cc3-c3ccccc3)cc2)CCC1 [MK2206] (first compound 0.0005 µM, partner dose 2 µM) came in with a cell count of 112%.

Compound `CC[C@]1(O)C[C@H]2CN(CCc3c([nH]c4ccccc34)[C@@](C(=O)OC)(c3cc4c(cc3OC)N(C=O)[C@H]3[C@@](O)(C(=O)OC)[C@H](OC(C)=O)[C@]5(CC)C=CCN6CC[C@]43[C@@H]65)C2)C1` [vincristine] + O=C(O)c1ccc(-c2c[nH]c3ncc(-c4ccccc4)cc23)cc1C1CCCC1 [GSK650394] (first compound 0.0005 µM, partner dose 0.8 µM) yielded a cell count of 94.8%.

The compound `CC[C@]1(O)C[C@H]2CN(CCc3c([nH]c4ccccc34)[C@@](C(=O)OC)(c3cc4c(cc3OC)N(C=O)[C@H]3[C@@](O)(C(=O)OC)[C@H](OC(C)=O)[C@]5(CC)C=CCN6CC[C@]43[C@@H]65)C2)C1` [vincristine] + COc1ccc(C2=N[C@@H](c3ccc(Cl)cc3)[C@@H](c3ccc(Cl)cc3)N2C(=O)N2CCNC(=O)C2)c(OC(C)C)c1 [Nutlin-3] (first compound 0.0005 µM, partner dose 0.5 µM) registered a cell count of 99.1%.

As to `N#CC[C@H](C1CCCC1)n1cc(-c2ncnc3[nH]ccc23)cn1` [ruxolitinib] + CC(=O)c1c(C)c2cnc(Nc3ccc(N4CCNCC4)cn3)nc2n(C2CCCC2)c1=O [palbociclib] (first compound 5 µM, partner dose 0.2 µM), the cell count was 69.2%.

In a further assay the test system is IST-MEL1. The assay is described as above. The settings on record: library dose: standard library concentration; 72 h.
On to `Cc1cc(Nc2cc(N3CCN(C)CC3)nc(Sc3ccc(NC(=O)C4CC4)cc3)n2)n[nH]1` [Tozasertib] + CC(=O)O[C@@]12CO[C@@H]1C[C@H](O)[C@@]1(C)C(=O)[C@H](O)C3=C(C)[C@@H](OC(=O)[C@H](O)[C@@H](NC(=O)OC(C)(C)C)c4ccccc4)C[C@@](O)([C@@H](OC(=O)c4ccccc4)[C@H]21)C3(C)C [Docetaxel] (first compound 0.03 µM, partner dose 0.0005 µM), for which the cell count turned out to be 50.6%.

For the compound `CC[C@]1(O)C[C@H]2CN(CCc3c([nH]c4ccccc34)[C@@](C(=O)OC)(c3cc4c(cc3OC)N(C=O)[C@H]3[C@@](O)(C(=O)OC)[C@H](OC(C)=O)[C@]5(CC)C=CCN6CC[C@]43[C@@H]65)C2)C1` [vincristine] + Oc1nc(-c2ccc(C(F)(F)F)cc2)nc2c1CSCC2 [XAV939] (first compound 0.0005 µM, partner dose 10 µM), the cell count was 89.2%.

Consider `CC[C@]1(O)C[C@H]2CN(CCc3c([nH]c4ccccc34)[C@@](C(=O)OC)(c3cc4c(cc3OC)N(C=O)[C@H]3[C@@](O)(C(=O)OC)[C@H](OC(C)=O)[C@]5(CC)C=CCN6CC[C@]43[C@@H]65)C2)C1` [vincristine] + c1cc(-c2cnn3cc(-c4ccc(OCCN5CCCCC5)cc4)cnc23)ccn1 [Dorsomorphin] (first compound 0.0005 µM, partner dose 2 µM), for which the cell count stood at 44.4%.

Consider `Cc1cc(Nc2cc(N3CCN(C)CC3)nc(Sc3ccc(NC(=O)C4CC4)cc3)n2)n[nH]1` [Tozasertib] + COc1ccc(-c2ccc3c(N4CCOCC4)nc(N4C[C@@H](C)O[C@@H](C)C4)nc3n2)cc1CO [KU0063794] (first compound 0.03 µM, partner dose 0.1 µM), for which the cell count was found to be 74.9%.

On to `CC[C@]1(O)C[C@H]2CN(CCc3c([nH]c4ccccc34)[C@@](C(=O)OC)(c3cc4c(cc3OC)N(C=O)[C@H]3[C@@](O)(C(=O)OC)[C@H](OC(C)=O)[C@]5(CC)C=CCN6CC[C@]43[C@@H]65)C2)C1` [vincristine] + O=C(Nc1cc(C(F)(F)F)cc(C(F)(F)F)c1)c1cc(Cl)ccc1O [IMD0354] (first compound 0.0005 µM, partner dose 0.08 µM), for which the cell count is 81%.

For `N#CC[C@H](C1CCCC1)n1cc(-c2ncnc3[nH]ccc23)cn1` [ruxolitinib] + Nc1cccc2c1CN(C1CCC(=O)NC1=O)C2=O [lenalidomide] (first compound 5 µM, partner dose 5 µM), the cell count came out at 93.7%.

Compound `CC[C@]1(O)C[C@H]2CN(CCc3c([nH]c4ccccc34)[C@@](C(=O)OC)(c3cc4c(cc3OC)N(C=O)[C@H]3[C@@](O)(C(=O)OC)[C@H](OC(C)=O)[C@]5(CC)C=CCN6CC[C@]43[C@@H]65)C2)C1` [vincristine] + COCC[n+]1c2c(n(Cc3cnccn3)c1C)C(=O)c1ccccc1C2=O [YM155] (first compound 0.0005 µM, partner dose 0.002 µM) yielded a cell count of 50.9%.

Compound `Cc1cc(Nc2cc(N3CCN(C)CC3)nc(Sc3ccc(NC(=O)C4CC4)cc3)n2)n[nH]1` [Tozasertib] + O=C(CCCCCCC(=O)Nc1ccccc1)NO [vorinostat] (first compound 0.03 µM, partner dose 0.4 µM) yielded a cell count of 74.2%.

Turning to `N#CC[C@H](C1CCCC1)n1cc(-c2ncnc3[nH]ccc23)cn1` [ruxolitinib] + CN(c1ncccc1CNc1nc(Nc2ccc3c(c2)CC(=O)N3)ncc1C(F)(F)F)S(C)(=O)=O [PF562271] (first compound 5 µM, partner dose 0.4 µM), the cell count worked out at 76.7%.

Take `N#CC[C@H](C1CCCC1)n1cc(-c2ncnc3[nH]ccc23)cn1` [ruxolitinib] + CC(=O)O[C@@]12CO[C@@H]1C[C@H](O)[C@@]1(C)C(=O)[C@H](O)C3=C(C)[C@@H](OC(=O)[C@H](O)[C@@H](NC(=O)OC(C)(C)C)c4ccccc4)C[C@@](O)([C@@H](OC(=O)c4ccccc4)[C@H]21)C3(C)C [Docetaxel] (first compound 5 µM, partner dose 0.0005 µM): the cell count was 39.9%.

As to `N#CC[C@H](C1CCCC1)n1cc(-c2ncnc3[nH]ccc23)cn1` [ruxolitinib] + C=C(c1ccc(C(=O)O)cc1)c1cc2c(cc1C)C(C)(C)CCC2(C)C [Bexarotene] (first compound 5 µM, partner dose 10 µM), the cell count was found to be 82.1%.

`CC[C@]1(O)C[C@H]2CN(CCc3c([nH]c4ccccc34)[C@@](C(=O)OC)(c3cc4c(cc3OC)N(C=O)[C@H]3[C@@](O)(C(=O)OC)[C@H](OC(C)=O)[C@]5(CC)C=CCN6CC[C@]43[C@@H]65)C2)C1` [vincristine] + O=S(=O)(c1ccccc1)N(CC(F)(F)F)c1ccc(C(O)(C(F)(F)F)C(F)(F)F)cc1 [T0901317] (first compound 0.0005 µM, partner dose 7 µM) displayed a cell count of 83.3%.

Take `Cc1cc(Nc2cc(N3CCN(C)CC3)nc(Sc3ccc(NC(=O)C4CC4)cc3)n2)n[nH]1` [Tozasertib] + COc1ccc(C2=N[C@@H](c3ccc(Cl)cc3)[C@@H](c3ccc(Cl)cc3)N2C(=O)N2CCNC(=O)C2)c(OC(C)C)c1 [Nutlin-3] (first compound 0.03 µM, partner dose 0.5 µM): the cell count came to 103%.

Source of the values: the supplement of paper PMC4604168 (melanoma cell lines).
